Screen size: about 270,000 compounds; about 620 (0.23%) were called active. Inconclusive means that the source gave no clear call. Such entries were picked first, then a sample of the others. Calls follow the shape of the dose curve; as a rule, active = well fitted inhibition curve with a large enough effect in the polarisation, with a control signal flat (not every such curve was filed as active); inconclusive = small, poorly fitted or top-dose-only effect, or effect the other way, or a change in a side signal; inactive = no such curve, though single readings can be large or run the other way; the % refers to the polarisation. Where the call is inconclusive, the potency comes from a doubtful curve fit. A note “side channel” means that the fit belongs to a control or component signal, not to the main read-out.
The compounds below were run against Menin (Homo sapiens) (UniProt O00255) (assay: qHTS Assay for Inhibitors Targeting the Menin-MLL Interaction in MLL Related Leukemias: Competition With Texas Red Labeled MLL-derived Mutant Peptide). Conditions: fluorescence polarization; series mostly up to 61.6 µM.
Sequence of UniProt O00255 (O00255 whole entry, looked up): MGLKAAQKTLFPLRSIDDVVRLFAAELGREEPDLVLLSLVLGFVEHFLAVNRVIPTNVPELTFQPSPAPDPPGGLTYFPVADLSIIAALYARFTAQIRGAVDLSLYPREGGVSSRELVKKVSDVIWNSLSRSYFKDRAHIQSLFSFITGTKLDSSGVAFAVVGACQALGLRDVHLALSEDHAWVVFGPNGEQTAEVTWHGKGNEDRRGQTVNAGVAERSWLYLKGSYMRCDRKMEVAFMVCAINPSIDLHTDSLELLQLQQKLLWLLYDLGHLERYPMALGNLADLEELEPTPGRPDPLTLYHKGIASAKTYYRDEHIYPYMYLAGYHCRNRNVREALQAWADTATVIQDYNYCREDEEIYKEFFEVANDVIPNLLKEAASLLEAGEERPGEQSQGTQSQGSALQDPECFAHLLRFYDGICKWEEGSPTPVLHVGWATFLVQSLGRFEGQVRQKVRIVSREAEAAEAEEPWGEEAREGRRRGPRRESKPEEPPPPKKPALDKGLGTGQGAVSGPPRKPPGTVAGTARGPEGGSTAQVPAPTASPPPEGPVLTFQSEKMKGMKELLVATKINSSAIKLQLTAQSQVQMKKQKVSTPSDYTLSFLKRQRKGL
Potency is read from the fitted curve at half-maximal effect; tags tell the direction and shape of the fitted curve or compound fluorescence and quenching.

SMILES | Potency
O=C(COC(=O)CC(c1ccccc1)c1ccccc1)Nc1ccc(F)c(F)c1 | inconclusive: 31.6 µM [quencher, side channel, partial curve]
C/C(=N\Nc1nc(-c2cc(C)ccc2C)cs1)c1cc2c(ccc3ccccc32)oc1=O | inconclusive: 15.8 µM [quencher, side channel, partial curve]
CC1(COc2ccc(CC3SC(=O)NC3=O)cc2)CCCCC1 (stereo not given) | inconclusive: 17.8 µM [quencher, side channel, partial curve]
CCCCNCCOCCOc1ccc(C)cc1[N+](=O)[O-] | inconclusive: 8.91 µM [inhibitor, partial curve, poor fit]
O=C(COC(=O)c1cc(-c2ccccc2)nc2ccccc12)Nc1ccc2c(c1)OCO2 | inconclusive: 15.8 µM [quencher, side channel, partial curve]
Cc1cccc(N2CCN(C(=S)Nc3ccc4nc(N5CCN(C)CC5)cc(C)c4c3)CC2)c1C | inconclusive: 11.2 µM [inhibitor, partial curve]
COc1ccc(-c2nn(-c3ccccc3)cc2C(=O)OCC(=O)c2ccc(C)c([N+](=O)[O-])c2)cc1 | inconclusive: 28.2 µM [inhibitor, single point]
CCOC(=O)c1cc2c(C)n(-c3ccc(N(C)C)cc3)c(C)c2cc(C(=O)OCC)c1=O | inconclusive: 1.58 µM [fluorescent, side channel, full curve, poor fit]
CCOC(=O)c1cnc2c(OC)cccc2c1N1CC(C)CC(C)C1 (stereo not given) | inconclusive: 7.94 µM [fluorescent, side channel, full curve, poor fit]
COc1cc(/C=N/N2C(=O)CSC2=S)cc(Br)c1O | inconclusive: 14.1 µM [fluorescent, side channel, partial curve]
Cc1cccc(NC(=S)N(CCCN2CCCC2)Cc2cccn2Cc2ccc(Cl)cc2)c1 | inconclusive: 2 µM [fluorescent, side channel, full curve, poor fit]
O=C(CCC1CCCCC1)Nc1ccccc1-c1ccccc1 | inconclusive: 11.2 µM [fluorescent, side channel, partial curve]
CN(C)c1ccc(-c2nnn(CC(=O)Nc3ccc4c(c3)OCCO4)n2)cc1 | inconclusive: 31.6 µM [quencher, side channel, partial curve]
COc1ccc(C(=O)Nc2ccc(NC(=O)c3cccs3)c(OC)c2)cc1Cl | inconclusive: 3.55 µM [quencher, side channel, full curve]
C=CCn1c(SCC(=O)Nc2ccccc2)nc2scc(-c3cccs3)c2c1=O | inconclusive: 12.6 µM [inhibitor, partial curve]
CCn1c(SCC(=O)Nc2ccc(C(C)=O)cc2)nc2ccccc21 | inconclusive: 31.6 µM [inhibitor, partial curve, poor fit]
COc1ccc(C)cc1NC(=O)c1nnn(CCc2ccccc2)c1N | inconclusive: 3.55 µM [quencher, side channel, single point]
CC(=O)c1cccc(NC(=S)NCCc2ccc(Cl)cc2)c1 | inconclusive: 17.8 µM [quencher, side channel, partial curve]
Cc1ccc(O)c(C(=O)c2cc(C#N)c(=O)n(-c3nccs3)c2)c1 | inconclusive: 12.6 µM [quencher, side channel, partial curve]
O=C(N/N=C/c1cccs1)c1cccc2cc[nH]c12 | inconclusive: 2.51 µM [inhibitor, partial curve]
COc1cccc(N2CCN(S(=O)(=O)c3ccc4c(c3)N(C(C)=O)CCO4)CC2)c1 | inconclusive: 22.4 µM [quencher, side channel, single point]
CC(C)(C)OC(=O)N1Cc2cc3ccccc3nc2C1CO (stereo not given) | inconclusive: 22.4 µM [inhibitor, single point]
COc1ccc(-c2ocnc2C(=O)Nc2ccc3c(c2)CCC3)cc1 | inconclusive: 8.91 µM [inhibitor, single point]
COc1ccc(COC(=O)C2=C(C)NC(=O)NC2c2cc(OC)ccc2OC)cc1 (stereo not given) | inactive
COC(=O)C1CN(C(=O)COc2cccc(C)c2C)c2ccccc2O1 (stereo not given) | inconclusive: 50.1 µM [inhibitor, partial curve, poor fit]
CCCCC(=O)OCC(=O)[C@]1(O)Cc2c(O)c3c(c(O)c2[C@H](OC2CC(NC(=O)C(F)(F)F)C(O)C(C)O2)C1)C(=O)c1c(OC)cccc1C3=O (stereo not given in full) | active: 28.2 µM
Brc1cc(Br)c2nc(-c3ccc(N4CCOCC4)cc3)ccc2c1 | inconclusive: 8.91 µM [quencher, side channel, partial curve]
COc1ccccc1-n1c(SCC(=O)N2CCOCC2)nc2ccccc2c1=O | inconclusive: 8.91 µM [inhibitor, single point]

SMILES | Potency
Cc1ccc(C(=O)NNC(=O)c2ccc3ccccc3c2O)cc1 | inconclusive: 20 µM [quencher, side channel, partial curve]
O=C(NCC(=O)N1CCN(S(=O)(=O)/C=C/c2ccccc2)CC1)c1ccccc1F | inconclusive: 0.794 µM [inhibitor, partial curve, poor fit]
CCCCCCc1cc2cc(S(=O)(=O)c3ccc(F)cc3)c(=O)oc2cc1O | inconclusive: 39.8 µM [quencher, side channel, single point]
CCOC(=O)Cc1csc(NS(=O)(=O)c2ccc3ccccc3c2)n1 | inconclusive: 35.5 µM [quencher, side channel, single point]
Cc1nc(-c2ccc(C(=O)Nc3cccc(Br)c3)cc2)cs1 | inconclusive: 8.91 µM [quencher, side channel, partial curve]
O=C(N/C(=C/c1ccc(Cl)cc1)C(=O)N1CCCCC1)c1ccco1 | inactive
Fc1cccc(Cl)c1Cn1nnc(-c2ccc(N3CCOCC3)cc2)n1 | inactive
COc1ccc(S(=O)(=O)N2CC=C(C(=O)Nc3ccc(NC(C)=O)cc3)CC2)cc1 | inconclusive: 31.6 µM [inhibitor, single point]
O=C(Nc1ccc(Br)cc1)c1cc(S(=O)(=O)Nc2ccccn2)ccc1Cl | inconclusive: 25.1 µM [quencher, side channel, single point]
Cc1cc([N+](=O)[O-])nn1Cc1ccc(C(=O)N/N=C/c2ccc(O)cc2O)cc1 | inconclusive: 10 µM [quencher, side channel, partial curve]
CCCC1=NN(C(=O)C(=O)Nc2ccc(Br)cc2)C(O)(C(F)(F)F)C1 (stereo not given) | inconclusive: 25.1 µM [quencher, side channel, single point]
CCNc1nc(NCC)nc(Oc2ccc(N)cc2)n1 | inactive
C=CCNC(=O)c1onc(CSc2cccc3ccccc23)c1C(=O)O | inconclusive: 17.8 µM [quencher, side channel, partial curve]
c1ccc(CNc2nc(NCc3ccco3)nc(N3CCOCC3)n2)cc1 | inconclusive: 17.8 µM [fluorescent, side channel, partial curve]
Cc1ccsc1-c1nc(CSCC(=O)NCCN2CCCC2)c(C)o1 | inconclusive: 14.1 µM [fluorescent, side channel, partial curve]
CN1CCN2c3ccccc3Cc3ccccc3C2C1 (stereo not given) | inconclusive: 25.1 µM [fluorescent, side channel, single point]
Cc1ccc(S(=O)(=O)N2CCOCC2)cc1NC(=O)CNCC1CCCCC1 | inconclusive: 11.2 µM [fluorescent, side channel, partial curve]
CCC(=O)c1ccc(OCC(O)CN2CCN(C(c3ccccc3)c3ccccc3)CC2)cc1 (stereo not given) | inconclusive: 20 µM [inhibitor, partial curve]
O=C1NN(c2ccccc2)C(=O)/C1=C\c1ccc(-c2cc([N+](=O)[O-])ccc2O)o1 | inconclusive: 20 µM [quencher, side channel, partial curve]
O=C(Cc1ccc(Cl)c(Cl)c1)Nc1cccnc1 | inactive
COc1ccc(OC)c(C2NC(=O)NC(C)=C2C(=O)OC2CCCCC2)c1 (stereo not given) | inconclusive: 14.1 µM [inhibitor, partial curve, poor fit]
COc1ccc(NCC(=O)N/N=C/c2cc([N+](=O)[O-])ccc2N2CCCC2)cc1 | inconclusive: 17.8 µM [quencher, side channel, partial curve]
CN(C)CCC1c2ccc(Cl)cc2CCc2cccnc21 (stereo not given) (tested in a mixture with another compound) | inconclusive: 39.8 µM [inhibitor, single point]
O=C(NCC1CC1)c1ccc(Nc2nc3ccc(Br)cc3[nH]2)cc1 | inconclusive: 39.8 µM [quencher, side channel, single point]
COc1ccc2nc(SCCOC(=O)Nc3ccc(Cl)cc3)nc(C)c2c1 | inconclusive: 11.2 µM [quencher, side channel, partial curve]
COc1ncnc2c1oc1nc(CC(C)C)c3c(c12)CC(C)(C)OC3 | inconclusive: 10 µM [inhibitor, partial curve, poor fit]
COc1ccc(/C=N/NC(=O)c2cc3c(OC)ccc(OC)c3[nH]2)cc1O | inconclusive: 2.24 µM [quencher, side channel, full curve, poor fit]

— PubChem BioAssay AID1768 (National Center for Advancing Translational Sciences (NCATS), 2009)
